Measurements as given in ChEMBL document CHEMBL4888484, “Replenishing the malaria drug discovery pipeline: Screening and hit evaluation of the MMV Hit Generation Library 1 (HGL1) against asexual blood stage Plasmodium falciparum ,using a nano luciferase reporter read-out” (2022).
About 540 (0.36%) of roughly 150,000 compounds showed an effect of 50% or more. The list shows a part of the results.

System: Plasmodium falciparum
Experiment: Primary screen in NF54 nanoGlo assay, in single point, at 2uM, 72h; a lower Z score goes with more inhibition
Assay type: functional, Erythrocyte
Details: timepoint 72 hour

SMILES | % Inhibition | Z score
CC1CCCN(S(=O)(=O)CCS(C)(=O)=O)C1CN (stereo not drawn) | 1% | -0.18
Cc1cc(C)cc(-c2nnc(NC(=O)N3CCC4OCCN(C)C4C3)s2)c1 (stereo not drawn) | -10% | 0.93
O=C([C@@H]1COCC(=O)N1Cc1ccccc1)N1CCCc2ccccc21 | 4% | -0.83
CCCCN1CCc2ccc(NC(=O)[C@H](C)NC(C)=O)cc21 | -10% | 1.03
N#Cc1c2n(c(=O)n([C@H]3CCN(CC(F)(F)F)C3=O)c1=O)CCC2 | 0% | 0.04
Oc1cc(CC[C@H]2CCCCN2)cc(-c2cc(N3CCOCC3)ncn2)c1 | 7% | -0.99
CC(C)CN1CCC(N2CC(Oc3cccc(C(=O)N4CCCC4)c3)C2)CC1 | -4% | 0.5
CCOc1cc(C(F)(F)F)cc(N)n1 | -14% | 1.2
Cc1nn(C(C)C)c(C)c1CC(=O)N1CCC2(CC1)C[C@@H](O)CCO2 | 1% | -0.12
Cn1c(CCNC(=O)Nc2nncs2)nc2c(F)cccc21 | -2% | 0.33
Cc1cc([C@@H]2CCCCCN2S(=O)(=O)c2ccc3c(c2)OCCO3)no1 | -22% | 1.94
COc1ncc(C(=O)N2CCN(c3cccc(Cl)c3)CC2)cn1 | -7% | 1.08
CC(NS(=O)(=O)c1ccc(NC(=O)Cc2ccc(Cl)cc2)cc1)C1CC2CCC1C2 (stereo not drawn) | -1% | 0.21
c1cncc(CCNc2nc(C3CCCC3)nc3c2CCOCC3)c1 | -6% | 1.03
COCc1cc(N2CCO[C@H](C(F)(F)F)C2)ncn1 | -11% | 2.19
NC(=O)c1ccc(NC(=O)C2CN(C(=O)c3c[nH]c4ccccc34)C2)cc1 | -18% | 2.09
COc1ccc([C@H]2NCCc3c2[nH]c2ccc(OCc4ccccc4)cc32)cc1COc1c(C)cccc1C | 10% | -1.27
O=C(Nc1ccc(N2CCOCC2)cc1)c1ccc2nc(-c3ccccc3)cn2c1 | -7% | 1
Cc1noc(C)c1CNC[C@H]1CN(C2CC2)CCO1 | -20% | 2.48
O=C(NCC1Cc2ccccc21)NC1CCOC(c2ccccc2)C1 (stereo not drawn) | -11% | 0.92
O=C(NC(c1cccc(Cl)c1)C1CCCCC1)C1CCC(C(=O)O)NC1 (stereo not drawn) | -9% | 1.06
Cc1ccc(S(=O)(=O)NCc2nc3cccnc3n2C2CC2)cc1C | 3% | -0.58
COCCn1cncc1CN1CC[C@H]1c1cccs1 | 5% | -0.94
CCOC1CC(NC(=O)NCc2scnc2C)C12CCCC2 (stereo not drawn) | -9% | 0.93
CC(=O)NC[C@H]1COCc2nc3ccc(C)cc3n21 | -9% | 1.42
COc1cc(C)ccc1Oc1ccc(NC(=O)N2CCC[C@@H]2CCO)cc1F | -1% | 0.27
O=C(Nc1ccc(C(F)(F)F)cc1)c1ccc2c(c1)CCCN2S(=O)(=O)c1ccccc1 | -4% | 0.69

SMILES | % Inhibition | Z score
O=C(c1ccc2[nH]c3c(c2c1)CCCC3)N1CCC1 | -12% | 1.59
Cc1ccc2nsnc2c1NC(=O)N1CCN(CCOCCO)CC1 | -5% | 0.75
Cc1ccccc1CCNc1cc([C@H]2C[C@H](N)C2)ncn1 | -8% | 0.83
COc1ccc(-c2cc(C(=O)Nc3nc(C)c(C)s3)nn2[C@H]2CCS(=O)(=O)C2)cc1 | -18% | 2.08
O=C(NC1CCCCCC1)c1ccc2cnn(Cc3ccc(F)cc3)c2c1 | -22% | 1.94
CCN(Cc1ccc(C(=O)NCc2ccc3c(c2)OCO3)c(=O)[nH]1)[C@H]1COC[C@@H]1O | -16% | 1.87
COc1cc(OC)cc(C(=O)N2CCN([C@H](C(=O)N3CCc4ccccc4C3)C3CCCC3)CC2)c1 | 9% | -1.55
CC[C@@]1(c2cnn(C)c2)NC(=O)N(Cc2ccc(F)cc2C#N)C1=O | 6% | -0.9
CC1=NN(c2nccc3sccc23)C(=O)[C@H]1C | -6% | 1.16
CC(O)C1CCCN(CC(C#N)CCC#N)C1 (stereo not drawn) | -6% | 1.17
CCC(NC(=O)CCc1scnc1C)[C@H]1C[C@H](O)C1 (stereo partly drawn) | 0% | -0.03
CCOC(=O)[C@H](Cc1ccccc1)Nc1ncnc2onc(C)c12 | 3% | -0.57
CCN(Cc1cc(Cl)ccc1OC)c1nc(C)nc2oc(C)nc12 | 14% | -1.79
O=C(c1ncoc1C1CC1)N1CCc2ccnc(O)c2C1 | 18% | -2.12
CCCc1ncncc1C(=O)N[C@@H](C)c1nncn1CCC | -6% | 0.58
O=C(Nc1nc2ccccc2s1)C(Cc1ccccc1)Cc1ccccc1 | 12% | -1.53
Cc1cc(NC(=O)[C@H]2CCCN(c3ccnc(-c4cccc(F)c4)n3)C2)ccc1Br | -15% | 1.78
CN1CCCc2c(c3cc(F)ccc3n2CCc2ccncc2)C1 | 0% | 0.01
COc1cc(C(=O)NCCNC(=O)c2cc(-c3ccccc3)nc3ccccc23)cc(OC)c1OC | -11% | 1.69
Cc1[nH]c(=O)[nH]c(=O)c1CC(=O)N[C@H]1CC(=O)N(C2CCCCCC2)C1 | -9% | 1.45
Cc1ccc([C@@H](C)CNC(=O)Nc2cc(C3CCC3)nn2C)cc1 | 1% | -0.16
COCc1nsc(NC(=O)c2ccccn2)n1 | 6% | -0.54
CN(CCc1nc2ccccc2[nH]1)C(=O)Cn1nnnc1CN1CCCC1 | -12% | 1.63
Clc1ccc(CCNc2nc(-c3ccccc3)no2)cc1 | -3% | 0.29
CCN(C[C@H](C)C#N)C(=O)C1CCCC1 | -8% | 0.77
O=C(Nc1ccccc1CN1CCCCC1)NC1CCOCC1 | -4% | 0.76
Cc1cnc(C(=O)Nc2nc3c(s2)CCC3)cn1 | -17% | 1.43
